Source: the supplement of paper PMC8728848
Some of the results follow.

Key:
Experiment in all cases: glycan array binding signal (z-score within array); higher = stronger binding
Conditions in all cases: glycan notation: IUPAC condensed, linker removed; mutation: Y228W
[1] = molecular target: Fuc(a1-2)Gal(b1-4)GlcNAc(b1-3)Gal(b1-4)GlcNAc(b1-2)Man(a1-3)[Fuc(a1-2)Gal(b1-4)GlcNAc(b1-3)Gal(b1-4)GlcNAc(b1-2)Man(a1-6)]Man(b1-4)GlcNAc(b1-4)GlcNAc
Method in brief: (§1)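 Glycan array data were curated from 3228 arrays in the Consortium for Functional Glycomics database and kept only where the protein sequence was available. Glycan names were converted to IUPAC-condensed notation, and columns mapping to the same glycan were averaged. The binding signal is a within-array Z-score, averaged across arrays of the same protein sequence at different concentrations or buffers and across linkers. Negative Z-scores can be read as non-binding.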

[2] = molecular target: Fuc(a1-2)Gal(b1-4)GlcNAc(b1-3)Gal(b1-4)GlcNAc(b1-3)Gal(b1-4)GlcNAc
Method in brief: as §1

[3] = molecular target: Fuc(a1-2)Gal(b1-4)GlcNAc(b1-3)GalNAc
Method in brief: as §1

[4] = molecular target: Fuc(a1-2)Gal(b1-4)GlcNAc(b1-3)[Fuc(a1-2)Gal(b1-4)GlcNAc(b1-6)]GalNAc
Method in brief: as §1

[5] = molecular target: Fuc(a1-2)Gal(b1-4)GlcNAc(b1-3)[Fuc(a1-3)[Gal(b1-4)]GlcNAc(b1-6)]Gal(b1-4)Glc
Method in brief: as §1

[6] = molecular target: Fuc(a1-2)Gal(b1-4)GlcNAc(b1-6)GalNAc
Method in brief: as §1

[7] = molecular target: Fuc(a1-2)Gal(b1-4)GlcNAc6S
Method in brief: as §1

[8] = molecular target: Fuc(a1-2)Gal(b1-4)[Fuc(a1-3)]GlcNAc
Method in brief: as §1

[9] = molecular target: Fuc(a1-2)Gal(b1-4)[Fuc(a1-3)]GlcNAc(b1-2)Man(a1-3)[Fuc(a1-2)Gal(b1-4)[Fuc(a1-3)]GlcNAc(b1-2)Man(a1-6)]Man(b1-4)GlcNAc(b1-4)[Fuc(a1-6)]GlcNAc
Method in brief: as §1

[10] = molecular target: Fuc(a1-2)Gal(b1-4)[Fuc(a1-3)]GlcNAc(b1-2)[Fuc(a1-2)Gal(b1-4)[Fuc(a1-3)]GlcNAc(b1-4)]Man(a1-3)[Fuc(a1-2)Gal(b1-4)[Fuc(a1-3)]GlcNAc(b1-2)Man(a1-6)]Man(b1-4)GlcNAc(b1-4)GlcNAc
Method in brief: as §1

[11] = molecular target: Fuc(a1-2)Gal(b1-4)[Fuc(a1-3)]GlcNAc(b1-3)Gal(b1-4)[Fuc(a1-3)]GlcNAc
Method in brief: as §1

[12] = molecular target: Fuc(a1-2)Gal(b1-4)[Fuc(a1-3)]GlcNAc(b1-3)Gal(b1-4)[Fuc(a1-3)]GlcNAc(b1-3)Gal(b1-4)[Fuc(a1-3)]GlcNAc
Method in brief: as §1

[13] = molecular target: Fuc(a1-2)Gal(b1-4)[Fuc(a1-3)]GlcNAc(b1-3)GalNAc
Method in brief: as §1

[14] = molecular target: Fuc(a1-2)Gal(b1-4)[Fuc(a1-3)]GlcNAc(b1-3)[Neu5Ac(a2-6)Gal(b1-4)GlcNAc(b1-6)]Gal(b1-4)Glc
Method in brief: as §1

[15] = molecular target: Fuc(a1-2)Gal3S(b1-4)GlcNAc
Method in brief: as §1

[16] = molecular target: Fuc(a1-2)Gal6S(b1-3)GlcNAc
Method in brief: as §1

[17] = molecular target: Fuc(a1-2)Gal6S(b1-3)GlcNAc6S
Method in brief: as §1

Fuc(a1-2)Gal6S(b1-4)Glc = molecular target: Fuc(a1-2)Gal6S(b1-4)Glc
Method in brief: as §1

[18] = molecular target: Fuc(a1-2)Gal6S(b1-4)Glc6S
Method in brief: as §1

Fuc(a1-2)[Gal(a1-3)]Gal = molecular target: Fuc(a1-2)[Gal(a1-3)]Gal
Method in brief: as §1

[19] = molecular target: Fuc(a1-2)[Gal(a1-3)]Gal(b1-3)GalNAc
Method in brief: as §1

[20] = molecular target: Fuc(a1-2)[Gal(a1-3)]Gal(b1-3)GalNAc(b1-3)Gal(a1-4)Gal(b1-4)Glc
Method in brief: as §1

[21] = molecular target: Fuc(a1-2)[Gal(a1-3)]Gal(b1-3)GlcNAc
Method in brief: as §1

[22] = molecular target: Fuc(a1-2)[Gal(a1-3)]Gal(b1-3)GlcNAc(b1-2)Man(a1-3)[Fuc(a1-2)[Gal(a1-3)]Gal(b1-3)GlcNAc(b1-2)Man(a1-6)]Man(b1-4)GlcNAc(b1-4)GlcNAc
Method in brief: as §1

[23] = molecular target: Fuc(a1-2)[Gal(a1-3)]Gal(b1-3)GlcNAc(b1-2)Man(a1-3)[Fuc(a1-2)[Gal(a1-3)]Gal(b1-3)GlcNAc(b1-2)Man(a1-6)]Man(b1-4)GlcNAc(b1-4)[Fuc(a1-6)]GlcNAc
Method in brief: as §1

[24] = molecular target: Fuc(a1-2)[Gal(a1-3)]Gal(b1-3)GlcNAc(b1-3)GalNAc
Method in brief: as §1

[25] = molecular target: Fuc(a1-2)[Gal(a1-3)]Gal(b1-3)GlcNAc(b1-6)GalNAc
Method in brief: as §1

[26] = molecular target: Fuc(a1-2)[Gal(a1-3)]Gal(b1-4)Glc
Method in brief: as §1

[27] = molecular target: Fuc(a1-2)[Gal(a1-3)]Gal(b1-4)GlcNAc
Method in brief: as §1

[28] = molecular target: Fuc(a1-2)[Gal(a1-3)]Gal(b1-4)GlcNAc(b1-2)Man
Method in brief: as §1

B1: Epa1-NP-mutant-Y228W (Candida glabrata), Q6VBJ0 (protein)
chain: MILNPALFLNKCVCIYTTLILLLLTNGGYATSSNDISLASKDPTTFPLGCSPDITTPKKGLSMELYSYDFRKKGSYPCWDAAYLDPNYPRTGYKSHRLLAKVDGVTGNINFYYHATKGCTPQLGHLPASYNYPKPLTMTNFTMLLYGYFRPKVTGFHTFTISADDLLFVNFGAGNAFDCCRRDSSADHFGNYQAYAIWGSKTAKDELTVHLDAGVYYPIRLFYNNREWDGALSFTFKTESNENTVSDFSEYFFSLDDTEEGCPGLISYDSSCASVKTSKIIGIDYHTETPNENLVPITKTIYHLGIPCTGTTTTPLCGSGFYDPLANKCVTINTSSTSSVTKTTSHTTSKEVSFHSSISSQKTLIPKSIPSPYGPIKSQSIPTEMETSSEISSSEYAFSDVISTPSHSPYTKKHSSLNSSSYTSTVIHSLTSYSISQGIFSTSLSEQNITSKSSTDKFSTATSMSNNITQSSIIISQFSTNNENYTTTSMHTSSDKISTETLNNSISTTTSILFSNSSTILKNNTTIISSDKDTHYHPVNPTIVCSTNKTEIICASITQPSISNSNNHWSSSVLKFNSTTVRSTLPSSAGSNETSINVPFSSSTESNTSTSSTSTSNSKMVRSTLPSSAGSNETSISVPFSSSTESNTSTSSTSTSNSKMVRSTLPSSAGSNETSINVPFSSSTESNTSTSSTSTSNSKTVRSTPFSSAGIIMTSLSQRNNKSASSYASSNSKCYNTADSCRKVHSTPSYLLTSSYTSEGVDYDCSLVSTKLKINDTNCVNNKHTTKSCLKTSVTTTIPTLEIKTARKSSSNTIGLHSYPTSSPNKSISSAPIIGYISSFKTIKTASPSYQTSDLTTITTITSLNNPGSTAVENTHESNDKSRKTSSNDISSKHSVIKETKDAVESSNKSHQTNTLKCSSIIIASSSHNSYESLGGTTLTLTLSKVYSPQNNDTLPFLEISEVNPSRTVLPESSKMMQYLTSTEERNKTARNTIATNIVSISTFHFEGEGNAIRMGYTQLLLMLIGIIVMNIGT
[1]
  glycan array binding signal (z-score): 0.051
[2]
  glycan array binding signal (z-score): 0.005
[3]
  glycan array binding signal (z-score): -0.013
[4]
  glycan array binding signal (z-score): -0.259
[5]
  glycan array binding signal (z-score): -0.169
[6]
  glycan array binding signal (z-score): 0.006
[7]
  glycan array binding signal (z-score): -0.4
[8]
  glycan array binding signal (z-score): -0.334
[9]
  glycan array binding signal (z-score): -0.013
[10]
  glycan array binding signal (z-score): -0.115
[11]
  glycan array binding signal (z-score): -0.202
[12]
  glycan array binding signal (z-score): -0.295
[13]
  glycan array binding signal (z-score): -0.204
[14]
  glycan array binding signal (z-score): -0.026
[15]
  glycan array binding signal (z-score): -0.25
[16]
  glycan array binding signal (z-score): -0.297
[17]
  glycan array binding signal (z-score): -0.1
Fuc(a1-2)Gal6S(b1-4)Glc
  glycan array binding signal (z-score): -0.117
[18]
  glycan array binding signal (z-score): -0.424
Fuc(a1-2)[Gal(a1-3)]Gal
  glycan array binding signal (z-score): -0.19
[19]
  glycan array binding signal (z-score): 0.002
[20]
  glycan array binding signal (z-score): -0.266
[21]
  glycan array binding signal (z-score): -0.249
[22]
  glycan array binding signal (z-score): -0.211
[23]
  glycan array binding signal (z-score): -0.269
[24]
  glycan array binding signal (z-score): -0.019
[25]
  glycan array binding signal (z-score): -0.368
[26]
  glycan array binding signal (z-score): -0.105
[27]
  glycan array binding signal (z-score): -0.39
[28]
  glycan array binding signal (z-score): -0.304
